# Results from the supplement of paper PMC8728848.
# Some of the results follow.
# B1: Flo11 (Saccharomyces cerevisiae), Q1H8S8 (protein)
# chain: MGSSHHHHHHSSGLVPRGSHMFPTALVPRGSSEGTSCNSIVNGCPNLDFNWHMDQQNIMQYTLDVTSVSWVQDNTYQITIHVKGKENIDLKYLWSLKIIGVTGPKGTVQLYGYNENTYLIDNPTDFTATFEVYATQDVNSCQVWMPNFQIQFEYLQGSAAQYASSWQWGTTSFDLSTGCNNYDNQGHSQTDFPGFYWNIDCDNNCGGTKSS
# Columns and labels:
# Assay in all cases: glycan array binding signal (z-score within array); higher = stronger binding
# Settings in all cases: glycan notation: IUPAC condensed, linker removed
# [1] = molecular target: Gal(b1-4)GlcNAc(b1-3)[GlcNAc(b1-6)]Gal(b1-4)GlcNAc
# Method in brief: (§1)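 Columns mapping to the same glycan were averaged after glycan names were converted to IUPAC-condensed notation. The data come from 3228 arrays in the Consortium for Functional Glycomics database, limited to those with an available protein sequence. Binding is reported as a within-array Z-score averaged across arrays of one protein sequence and across linkers.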
# [2] = molecular target: Gal(b1-4)GlcNAc(b1-6)Gal(b1-4)GlcNAc
# Method in brief: as §1
# [3] = molecular target: Gal(b1-4)GlcNAc(b1-6)Gal(b1-4)GlcNAc(b1-6)GalNAc
# Method in brief: as §1
# [4] = molecular target: Gal(b1-4)GlcNAc(b1-6)GalNAc
# Method in brief: as §1
# [5] = molecular target: Gal(b1-4)GlcNAc(b1-6)[Gal(b1-3)]GalNAc
# Method in brief: as §1
# Gal3S(b1-3)GalNAc = molecular target: Gal3S(b1-3)GalNAc
# Method in brief: as §1
# Gal3S(b1-3)GlcNAc = molecular target: Gal3S(b1-3)GlcNAc
# Method in brief: as §1
# [6] = molecular target: Gal3S(b1-3)[Fuc(a1-4)]GlcNAc
# Method in brief: as §1
# Gal3S(b1-4)Glc = molecular target: Gal3S(b1-4)Glc
# Method in brief: as §1
# Gal3S(b1-4)Glc6S = molecular target: Gal3S(b1-4)Glc6S
# Method in brief: as §1
# Gal3S(b1-4)GlcNAc = molecular target: Gal3S(b1-4)GlcNAc
# Method in brief: as §1
# Gal3S(b1-4)GlcNAc6S = molecular target: Gal3S(b1-4)GlcNAc6S
# Method in brief: as §1
# [7] = molecular target: Gal3S(b1-4)[Fuc(a1-3)]Glc
# Method in brief: as §1
# Gal3S4S(b1-4)GlcNAc = molecular target: Gal3S4S(b1-4)GlcNAc
# Method in brief: as §1
# Gal3S6S(b1-4)GlcNAc = molecular target: Gal3S6S(b1-4)GlcNAc
# Method in brief: as §1
# Gal3S6S(b1-4)GlcNAc6S = molecular target: Gal3S6S(b1-4)GlcNAc6S
# Method in brief: as §1
# Gal4S(b1-4)GlcNAc = molecular target: Gal4S(b1-4)GlcNAc
# Method in brief: as §1
# Gal4S6S(b1-4)GlcNAc = molecular target: Gal4S6S(b1-4)GlcNAc
# Method in brief: as §1
# Gal6S(b1-4)Glc = molecular target: Gal6S(b1-4)Glc
# Method in brief: as §1
# Gal6S(b1-4)Glc6S = molecular target: Gal6S(b1-4)Glc6S
# Method in brief: as §1
# Gal6S(b1-4)GlcNAc = molecular target: Gal6S(b1-4)GlcNAc
# Method in brief: as §1
# Gal6S(b1-4)GlcNAc6S = molecular target: Gal6S(b1-4)GlcNAc6S
# Method in brief: as §1
# GalNAc(a1-3)Gal = molecular target: GalNAc(a1-3)Gal
# Method in brief: as §1
# GalNAc(a1-3)GalNAc = molecular target: GalNAc(a1-3)GalNAc
# Method in brief: as §1
# GalNAc(b1-3)Gal = molecular target: GalNAc(b1-3)Gal
# Method in brief: as §1
# [8] = molecular target: GalNAc(b1-3)Gal(a1-4)Gal(b1-4)GlcNAc
# Method in brief: as §1
# [9] = molecular target: GalNAc(b1-3)Gal(a1-4)Gal(b1-4)GlcNAc(b1-3)Gal(b1-4)Glc
# Method in brief: as §1
# GalNAc(b1-3)GalNAc = molecular target: GalNAc(b1-3)GalNAc
# Method in brief: as §1
# GalNAc(b1-4)GlcNAc = molecular target: GalNAc(b1-4)GlcNAc
# Method in brief: as §1
# [10] = molecular target: GalNAc(b1-4)GlcNAc(b1-2)Man(a1-3)[GalNAc(b1-4)GlcNAc(b1-2)Man(a1-6)]Man(b1-4)GlcNAc(b1-4)GlcNAc
# Method in brief: as §1
# Glc(a1-4)Glc = molecular target: Glc(a1-4)Glc
# Method in brief: as §1
# Glc(a1-6)Glc(a1-6)Glc = molecular target: Glc(a1-6)Glc(a1-6)Glc
# Method in brief: as §1
# Glc(b1-4)Glc = molecular target: Glc(b1-4)Glc
# Method in brief: as §1
# Glc(b1-6)Glc = molecular target: Glc(b1-6)Glc
# Method in brief: as §1
# GlcA(b1-3)Gal = molecular target: GlcA(b1-3)Gal
# Method in brief: as §1
# GlcA(b1-3)GlcNAc = molecular target: GlcA(b1-3)GlcNAc
# Method in brief: as §1
# GlcA(b1-6)Gal = molecular target: GlcA(b1-6)Gal
# Method in brief: as §1
# [11] = molecular target: GlcNAc(a1-3)Gal(b1-4)GlcNAc
# Method in brief: as §1
# [12] = molecular target: GlcNAc(a1-4)Gal(b1-3)GlcNAc
# Method in brief: as §1
# [13] = molecular target: GlcNAc(a1-4)Gal(b1-4)GalNAc
# Method in brief: as §1
# [14] = molecular target: GlcNAc(a1-4)Gal(b1-4)GlcNAc
# Method in brief: as §1
# [15] = molecular target: GlcNAc(a1-4)Gal(b1-4)GlcNAc(b1-3)Gal(b1-4)Glc
# Method in brief: as §1
# [16] = molecular target: GlcNAc(a1-4)Gal(b1-4)GlcNAc(b1-3)Gal(b1-4)GlcNAc
# Method in brief: as §1
binder,measurement,setting,value
B1,glycan array binding signal (z-score),[1],-0.409
same,glycan array binding signal (z-score),[2],-0.501
same,glycan array binding signal (z-score),[3],-0.488
same,glycan array binding signal (z-score),[4],-0.318
same,glycan array binding signal (z-score),[5],-0.482
same,glycan array binding signal (z-score),Gal3S(b1-3)GalNAc,2.02
same,glycan array binding signal (z-score),Gal3S(b1-3)GlcNAc,-0.496
same,glycan array binding signal (z-score),[6],-0.502
same,glycan array binding signal (z-score),Gal3S(b1-4)Glc,-0.501
same,glycan array binding signal (z-score),Gal3S(b1-4)Glc6S,-0.501
same,glycan array binding signal (z-score),Gal3S(b1-4)GlcNAc,-0.499
same,glycan array binding signal (z-score),Gal3S(b1-4)GlcNAc6S,-0.504
same,glycan array binding signal (z-score),[7],0.304
same,glycan array binding signal (z-score),Gal3S4S(b1-4)GlcNAc,-0.499
same,glycan array binding signal (z-score),Gal3S6S(b1-4)GlcNAc,-0.496
same,glycan array binding signal (z-score),Gal3S6S(b1-4)GlcNAc6S,-0.494
same,glycan array binding signal (z-score),Gal4S(b1-4)GlcNAc,-0.5
same,glycan array binding signal (z-score),Gal4S6S(b1-4)GlcNAc,-0.489
same,glycan array binding signal (z-score),Gal6S(b1-4)Glc,-0.498
same,glycan array binding signal (z-score),Gal6S(b1-4)Glc6S,-0.491
same,glycan array binding signal (z-score),Gal6S(b1-4)GlcNAc,-0.49
same,glycan array binding signal (z-score),Gal6S(b1-4)GlcNAc6S,-0.459
same,glycan array binding signal (z-score),GalNAc(a1-3)Gal,-0.501
same,glycan array binding signal (z-score),GalNAc(a1-3)GalNAc,-0.487
same,glycan array binding signal (z-score),GalNAc(b1-3)Gal,3.63
same,glycan array binding signal (z-score),[8],4.27
same,glycan array binding signal (z-score),[9],2.75
same,glycan array binding signal (z-score),GalNAc(b1-3)GalNAc,1.53
same,glycan array binding signal (z-score),GalNAc(b1-4)GlcNAc,-0.39
same,glycan array binding signal (z-score),[10],0.623
same,glycan array binding signal (z-score),Glc(a1-4)Glc,-0.506
same,glycan array binding signal (z-score),Glc(a1-6)Glc(a1-6)Glc,-0.507
same,glycan array binding signal (z-score),Glc(b1-4)Glc,-0.496
same,glycan array binding signal (z-score),Glc(b1-6)Glc,-0.504
same,glycan array binding signal (z-score),GlcA(b1-3)Gal,-0.504
same,glycan array binding signal (z-score),GlcA(b1-3)GlcNAc,-0.507
same,glycan array binding signal (z-score),GlcA(b1-6)Gal,-0.505
same,glycan array binding signal (z-score),[11],-0.505
same,glycan array binding signal (z-score),[12],-0.473
same,glycan array binding signal (z-score),[13],-0.431
same,glycan array binding signal (z-score),[14],-0.475
same,glycan array binding signal (z-score),[15],1.96
same,glycan array binding signal (z-score),[16],1.99
